Test results taken from PubChem BioAssay (Tox21).
Where “and” joins values, the source holds several entries; their conditions need not be identical. Equal values may be shown once. This list was built around the results that the source calls inconclusive (neither active nor inactive); the mix of calls is not that of the screen. Potencies beside an inconclusive call are fits to weak or partial responses and may not hold up. Some structures have more than one record in an assay (separate samples or runs), and their calls can disagree. Calls of active or inactive are those of the source. The call rests on the fitted dose curve; in most records, active means well fitted activation curve with a large enough effect in the repeat runs; inconclusive means weak or mixed curves; inactive means no such curve, though single readings can be large or run the other way.

These compounds were tested against Aryl hydrocarbon receptor (Homo sapiens) (UniProt P35869) (assay: qHTS assay to identify small molecule that activate the aryl hydrocarbon receptor (AhR) signaling pathway (AID 743085; further: nearly all actives have a fitted effect of over 15% in size;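 on activation: HG2L7.5c1 human HepG2 liver cells with stably integrated DRE-driven firefly reporter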)). Conditions: HepG2 AhR-luc (HG2L7.5c1), luciferase, 24 h; series mostly up to 70.3 µM.
From the text: U.S. Tox21 Program National Center for Advancing Translational Sciences [NCATS] NIH Chemical Genomics Center [NCGC] U.S. Environmental Protection Agency [EPA] National Institutes of Environmental Health Sciences [NIEHS] National Toxicology Program [NTP] U.S. Food and Drug Administration [FDA] Tox21 Assay overview: The Aryl hydrocarbon Receptor (AhR), a member of the family of basic helix-loop-helix transcription factors, is crucial to adaptive responses to environmental changes. AhR mediates cellular responses to environmental pollutants such as aromatic hydrocarbons through induction of phase I and II enzymes but also interacts with other nuclear receptor signaling pathways. A cell based HepG2-AhR-luc assay (HG2L7.5c1 cell line, developed by Dr. Michael S. Denison, University of California at Davis, was used to assess the activation of AhR. HepG2 (human hepatocellular carcinoma) cells were stably transfected with an Ah receptor-responsive firefly luciferase reporter gene plasmid containing 20 dioxin responsive elements and luciferase reporter gene. Increased luciferase activity can be used to identify the compounds that induce AhR activation.
Tox21 Assay Protocol Summary: 4000 cells in 5 uL/well were dispensed into white wall/solid bottom 1536-well plates using a Multidrop Combi (Thermo Fisher Scientific Inc., Waltham, MA) dispenser. After the assay plates were incubated at 37C for 5 h, 23 nL of compound or DMSO vehicle was transferred to the assay plates by a pintool station (Kalypsys, San Diego, CA). The plates were incubated at 37C for 24 hr. After 1 ul/well of CellTiter-Fluor reagent (Promega, Madison, WI) was added into the assay plates using a Flying Reagent Dispenser (FRD) (Aurora Discovery, CA), the assay plates were incubated at 37C for 30 min. The fluorescence intensity in the plates was measured using a ViewLux plate reader (PerkinElmer, Shelton, CT), followed by the addition of 4 uL of ONE-Glo Luciferase Assay reagent (Promega) using an FRD (Aurora Discovery). After the assay plates were incubated at room temperature for 30 min, luminescence intensity was measured using a ViewLux plate reader (Perkin Elmer).
Potency means the concentration at half of the fitted maximal effect; tags describe the fitted curve by direction and shape.

UniProt P35869, sequence (P35869 whole entry, looked up): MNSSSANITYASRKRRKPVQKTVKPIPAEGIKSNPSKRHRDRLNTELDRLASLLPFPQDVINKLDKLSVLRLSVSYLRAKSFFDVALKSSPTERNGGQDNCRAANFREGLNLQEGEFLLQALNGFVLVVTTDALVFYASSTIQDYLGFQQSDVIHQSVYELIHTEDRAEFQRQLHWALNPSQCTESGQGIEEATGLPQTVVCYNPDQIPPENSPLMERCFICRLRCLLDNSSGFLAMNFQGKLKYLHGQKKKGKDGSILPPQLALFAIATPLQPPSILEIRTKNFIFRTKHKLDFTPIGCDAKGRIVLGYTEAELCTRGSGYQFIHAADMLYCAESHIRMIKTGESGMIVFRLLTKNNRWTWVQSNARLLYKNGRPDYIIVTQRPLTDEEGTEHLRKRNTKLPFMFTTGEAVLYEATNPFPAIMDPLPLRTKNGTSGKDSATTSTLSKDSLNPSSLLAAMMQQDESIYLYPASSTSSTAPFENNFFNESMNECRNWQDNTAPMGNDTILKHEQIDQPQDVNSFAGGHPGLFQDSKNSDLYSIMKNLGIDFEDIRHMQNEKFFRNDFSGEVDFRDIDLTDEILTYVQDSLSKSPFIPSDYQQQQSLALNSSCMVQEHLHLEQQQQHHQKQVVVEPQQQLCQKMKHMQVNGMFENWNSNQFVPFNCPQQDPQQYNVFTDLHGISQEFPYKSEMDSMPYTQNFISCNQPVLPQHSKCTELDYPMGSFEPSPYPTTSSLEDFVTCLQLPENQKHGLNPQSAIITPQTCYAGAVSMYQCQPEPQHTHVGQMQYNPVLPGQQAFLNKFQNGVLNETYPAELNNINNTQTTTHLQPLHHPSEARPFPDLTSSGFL

SMILES	Potency
c1ccc(-c2ccc(-c3ccccc3)cc2)cc1	inconclusive: 2.5 µM [activator, partial curve]
NC(N)=NC(=O)c1nc(Cl)c(N)nc1N	inconclusive: 61.5 µM [activator, partial curve] and inconclusive: 63.5 µM [activator, single point]
NNS(=O)(=O)c1ccc(Oc2ccc(S(=O)(=O)NN)cc2)cc1	inconclusive: 77 µM [activator, partial curve, poor fit]
CCN(Cc1ccccc1)c1ccccc1	inactive
Cc1cc(O)c2c(O)c3c(O)cccc3cc2c1	active: 2.66 µM
CCCC(=O)OCCC(C)C	inactive
O=C(Nc1ccc(Cl)c(Cl)c1)C1CC1	active: 29.8 µM
O=C(NC1CCN(CCc2c[nH]c3ccccc23)CC1)c1ccccc1	active: 29.8 µM
CC(C(=O)O)c1ccc(C(=O)c2ccccc2)s1 (stereo not given)	inconclusive: 5.69 µM [activator, partial curve]
CCCCCCOc1ccc(N)cc1	inconclusive: 19.3 µM [activator, full curve, poor fit]
CC(=O)Nc1nnc(S(N)(=O)=O)s1	inactive
OCc1cc(C(O)CNCCCCCCOCCCCc2ccccc2)ccc1O (stereo not given)	active: 26.6 µM and inactive
Cn1cnc2c(F)c(Nc3ccc(Br)cc3Cl)c(C(=O)NOCCO)cc21	inconclusive: 1.19 µM [activator, full curve, poor fit]
c1ccc(SCCSc2ccccc2)cc1	inconclusive: 54 µM [activator, partial curve]
CC1=C(C)C(=O)C(CCCCC#CCCCC#CCO)=C(C)C1=O	active: 11.9 µM
COC(Cc1ccccc1)OC	inactive
CC1=C(C)C(=O)C(C(CCCCCC(=O)O)c2ccccc2)=C(C)C1=O (stereo not given)	inactive
CCOC(=O)c1cnc2c(cnn2CC)c1NN=C(C)C	active: 29.8 µM
CC(O)CC(C)(C)O (stereo not given)	inactive
C[C@@H]1C[C@H]2[C@@H]3CCC4=CC(=O)C=C[C@]4(C)[C@@]3(F)[C@@H](O)C[C@]2(C)[C@H]1C(=O)CO	inconclusive: 18.8 µM [activator, partial curve, poor fit]

SMILES	Potency
C#CC(C)N(C)C(=O)Nc1ccc(Cl)cc1 (stereo not given)	inconclusive: 34.3 µM [activator, partial curve, poor fit]
CCN(Cc1cccc(S(=O)(=O)O)c1)c1ccc(C(=C2C=CC(=[N+](CC)Cc3cccc(S(=O)(=O)[O-])c3)C=C2)c2ccccc2)cc1	inactive
Cc1cc(NC(=O)C(=O)O)cc(C)c1Oc1ccc(O)c2c1CCC2	inconclusive: 17.2 µM [activator, full curve, poor fit]
C=CCSSCCC	inconclusive: 60.9 µM [activator, single point]
CCOC(=O)c1ccc(N(C)C)cc1	inconclusive: 68.6 µM [activator, single point]
CO[C@@]1(NC(=O)CSCC#N)C(=O)N2C(C(=O)O)=C(CSc3nnnn3C)CS[C@@H]21	inactive
CC(C)(C#N)Nc1nc(Cl)nc(NC2CC2)n1	inconclusive: 34.4 µM [activator, partial curve, poor fit]
N#C/C(=C1\SCC(c2ccccc2Cl)S1)n1ccnc1 (stereo not given)	active: 7.5 µM
CC1=NN(c2cc(S(=O)(=O)O)ccc2Cl)C(=O)C1N=Nc1ccccc1 (stereo not given)	inconclusive: 27.3 µM [activator]
CNCCCC1c2ccccc2C=Cc2ccccc21	inactive
Nc1ccc(-c2ccc(F)cc2)cc1	inconclusive: 34.4 µM [activator, partial curve]
COc1ccc2c(c1)c(CC(=O)O)c(C)n2C(=O)c1ccc(Cl)cc1	inconclusive: 33.5 µM [activator, single point]
CC(C)(C)C(=O)Oc1ccc(S(=O)(=O)Nc2ccccc2C(=O)NCC(=O)O)cc1	active: 11.9 µM
CCCC(C)CO (stereo not given)	inactive
CN1C(C)(C)CC(O)CC1(C)C	inconclusive: 68.6 µM [activator, single point]
O=C(O)[C@@H](O)[C@H](O)[C@H](O)[C@@H](O)C(=O)O	inactive
[O-][N+](=Nc1ccccc1)c1ccccc1	inconclusive: 26.6 µM [activator, partial curve] and active: 30.6 µM
C=CCCCCCC	inactive
O=C(O)c1ccc2c(c1)nc(C(=O)NC1CCN(C3CC3)CC1)n2Cc1cc(-c2ccc(Cl)s2)on1	inconclusive: 15.6 µM [activator, partial curve, poor fit]
O=C(c1ccccc1)c1ccc(O)c(O)c1O	inconclusive: 69.1 µM [activator, partial curve, poor fit]
